The target in this assay is Corticotropin releasing hormone receptor 1 with YFP F1 at the C‐terminus (mouse) (UniProt P35347). As to the kind of experiment: split reporter; BiFC: YFP F1 at the C-terminus of the GPCR, YFP F2 at the C-end of MRAP1/MRAP2-Flag; HEK293T cells fixed 24 h after transfection, confocal microscopy.

The chains behind the UniProt entries cited, without tags or fusion partners. Residues count along the entry.
UniProt P35347, residues 24-415: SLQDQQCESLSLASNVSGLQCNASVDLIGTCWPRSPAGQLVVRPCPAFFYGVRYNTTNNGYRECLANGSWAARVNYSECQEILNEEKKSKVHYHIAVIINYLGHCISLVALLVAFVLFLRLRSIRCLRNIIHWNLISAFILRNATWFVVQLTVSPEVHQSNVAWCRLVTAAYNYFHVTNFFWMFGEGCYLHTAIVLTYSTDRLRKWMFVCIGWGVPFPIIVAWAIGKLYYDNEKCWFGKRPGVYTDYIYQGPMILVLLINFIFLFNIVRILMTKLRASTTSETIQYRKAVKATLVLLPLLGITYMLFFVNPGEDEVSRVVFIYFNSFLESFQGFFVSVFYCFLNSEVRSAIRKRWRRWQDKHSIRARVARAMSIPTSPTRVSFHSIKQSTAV

Results are given in words; binding and its absence hold for the method and conditions named. In cells and extracts the contact can be indirect. Some binding calls cover weakened binding; strength is not graded here. Sequences can lack the tags named with a protein.

B1: MRAP2‐Flag‐F2 (protein, UniProt D3Z1Q2 1-207)
chain: MEMSAQRLASNRTSPQSPSNSDYTWEYEYYEIGPVSFEGLKAHKYSIVIGFWVGLAVFVIFMFFVLTLLTKTGAPHQDNAESSERRFRMNSFVSDFGKPLESDKVFSRQGNEESRSLFHCYINEVEHLDRVKVCHQTTAIDSDVHLQEASRSSGRPEEELARFMKFDIPNFVNTEQSSFGEDDLLISEAPVLLENKPVSQTSRIDLD
As for B1, the binding entry is listed as “binds”.

The values are drawn from paper PMC9619224.
